PubChem BioAssay (NCI)
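All cell lines were grown in 96-well plates and treated with compound for 48 hours. The concentration for 50% growth inhibition is given as GI50. TGI is the concentration that stops growth completely.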

System: NCI-H322M lung
Assay: inhibition of tumour cell growth, NCI panel, 48 h

| SMILES | TGI | GI50 |
| --- | --- | --- |
| Cc1cc(NS(=O)(=O)c2ccc(NC(=O)c3ccc4[nH]c5ccccc5c(=O)c4c3)cc2)no1 | > 100 µM | – |
| CC(C)C[C@H](NC(=O)[C@H](Cc1ccccc1)NC(=O)CCc1ccccc1)B(O)O | 0.0212 µM | – |
| COc1ccc2c(c1)=C(C=C1C=CN(O)C=C1)C(=O)N=2 | 62.2 µM | 19.4 µM |
| Nc1cc(C(=O)O)[nH]c(=O)n1 | > 100 µM | – |
| Cn1ccc(C(=O)N2CCSC2=S)c(OCc2ccccc2)c1=O | > 100 µM | – |
| O=C1CC(c2cccc(O)c2)C2(C(=O)NC(=S)NC2=O)C(c2cccc(O)c2)C1 (stereo unspecified) | > 100 µM | > 100 µM |
| CC/C(=C(/c1ccc(OCCN(C)C)cc1)c1ccc(OC(=O)CCC(=O)c2c(C)[nH]c(/C=C3\N=C(c4ccc[nH]4)C=C3OC)c2C)cc1)c1ccccc1 | 25.7 µM | 11.5 µM |
| O=c1cc(-c2ccccc2)oc2cc(O)c(O)c(O)c12 | 31 µM | 8.89 µM |
| Cc1ccc(O)c(C(c2ccc([N+](=O)[O-])cc2)c2cc(C)ccc2O)c1 | 35.9 µM | – |
| COc1ccc(C2CC(c3cccc(Nc4ccncc4)c3)=NN2c2ccc(Cl)cc2)cc1 (stereo unspecified) | 3.21 µM | 1.59 µM |
| C/C=C1/CN2CCc3c([nH]c4ccccc34)[C@@H]2C[C@@H]1Cc1[nH]ccc2c1[nH]c1cc(=O)ccc12 | 3.44 µM | – |
| CC(=O)Nc1ccc(/C=C/C(=O)c2ccccc2)cc1 | 69.5 µM | 26.8 µM |
| Clc1cc2c(cc1Cl)Oc1cc(Cl)c(Cl)cc1O2 | > 0.625 µM | > 0.625 µM |
| O=C(C=Nc1ccccc1C(=O)[O-])c1cccs1.O=C(C=Nc1ccccc1C(=O)[O-])c1cccs1.[Co+2] | > 100 µM | – |
| CN(Cc1ccc(Cl)cc1)c1ccc(CO)c(Cl)c1 | 20.6 µM | 6.48 µM |
| Cc1ccccc1C1=[N+]([O-])c2ccccc2C1=O | > 100 µM | – |
| CCCCCCCC(=O)NCC(O)CNC(=O)CCCCCCC | > 100 µM | – |
| CC(C)[C@H]1CC[C@H]2[C@@H](CC[C@H]3[C@](C)(CN)CCC[C@]23C)C1 | 3.35 µM | 1.72 µM |
| COC(=O)C(C)(C)OCc1ccc(C2NC(=O)N(c3cccc(Cl)c3)C(=O)N2c2cccc(Cl)c2)cc1 (stereo unspecified) | > 100 µM | – |
| CC(C)c1c(C(=O)Nc2ccccc2)c(-c2ccccc2)c(-c2ccc(F)cc2)n1CC[C@@H]1CC=CC(=O)O1 | 3.28 µM | 1.7 µM |
| N#Cc1n[nH]n(C2CCCCC2)c1=O | > 100 µM | – |
| N#Cc1c2c(c(Nc3cccc(C(F)(F)F)c3)n3c1nc1ccccc13)CCC2 | > 100 µM | – |
| Cn1cc(C2=C(c3cccc(N)c3)C(=O)NC2=O)c2ccccc21 | > 25 µM | > 25 µM |
| C#CCNC(=O)NCCCC(NC(C)=O)C(=O)NCc1ccccc1 (stereo unspecified) | > 100 µM | – |
| COC(=O)C1CCC(Nc2ccc(C)cc2C)=N1 (stereo unspecified) | > 100 µM | – |

| SMILES | TGI | GI50 |
| --- | --- | --- |
| O=S(=O)(N/N=C/c1ccc(Cl)c(Cl)c1)c1ccccc1 | > 100 µM | – |
| CC[O-].CC[O-].O=C([CH-]C(=O)c1cccnc1)c1ccccc1.O=C([CH-]C(=O)c1cccnc1)c1ccccc1.[Ti+4] | > 100 µM | 89.8 µM |
| Cc1ccccc1C1OC(=O)c2ccccc21 (stereo unspecified) | > 100 µM | – |
| N#CC(c1nc2ccccc2s1)c1ncnc(Cl)c1[N+](=O)[O-] (stereo unspecified) | 30.9 µM | – |
| COc1cc2c3c(n(CCCN(CCN)CCCn4c5c(c6cc(OC)c(OC)cc6c4=O)C(=O)c4cc6c(cc4-5)OCO6)c(=O)c2cc1OC)-c1cc2c(cc1C3=O)OCO2 | – | 1.9 µM |
| COc1cc(/C=N/n2c(Cc3ccc(Cl)cc3)n[nH]c2=O)cc(OC)c1OC | > 100 µM | – |
| CN(C)c1nc(N(C)C)nc(N(C)CN(C)c2ccc(Cl)cc2)n1 | > 100 µM | – |
| O=c1c2c3c(sc2n2c(-c4cc(-c5ccccc5)no4)nnc2n1Cc1ccccc1)CCCC3 | > 77.9 µM | 17 µM |
| O=S(=O)(N/N=C1\CC2CCC1C2)c1ccccc1 (stereo unspecified) | > 100 µM | – |
| COC(=O)C1CCOC(C)N1C(=O)OC(C)(C)C (stereo unspecified) | > 100 µM | – |
| C/C(=N\NC(N)=S)c1cc(C)c(C)cc1C | > 100 µM | – |
| O=C(Nc1nc(C23CC4CC(CC(C4)C2)C3)cs1)c1c(O)c2ccccc2[nH]c1=O | > 100 µM | – |
| COc1ccc(/C=C2\C(=O)N(C)C(=O)c3cc(OC)c(OC)cc32)cc1OC | > 100 µM | – |
| C/C=C/C/C=C/CCC(=O)[C@H]1O[C@H]1C(N)=O | 30.3 µM | 15.8 µM |
| COC(=O)CC1C(COC(C)=O)OC(n2cc(C)c(=O)[nH]c2=O)C1OC(C)=O (stereo unspecified) | > 100 µM | – |
| O=[N+]([O-])c1ccc2[nH]nc(OCc3ccccn3)c2c1 | > 100 µM | – |
| NC(=O)C#CC#CC#CCO | 23 µM | – |
| COc1ccc(/C(Cl)=C(/c2ccc(O)cc2)c2ccc(OCCN(C)C)cc2)cc1 | 23.5 µM | – |
| CCCCCCNC(=O)c1cc(CCc2cc(O)ccc2O)ccc1O | 26 µM | – |
| O=C1CCCC2C(O)CCC[C@H]12 (stereo partly specified) | > 100 µM | – |
| Nc1nc(NCCO)c(N=O)c(=O)[nH]1 | > 100 µM | – |
| N#CCCN(c1ccc(/C=C2\N=C(Cc3ccccc3)OC2=O)cc1)S(=O)(=O)c1ccccc1 | > 100 µM | – |
| CSc1nc(NC2OCC(OC(C)=O)C(OC(C)=O)C2OC(C)=O)c(N=C(C)C(C)=O)c(=O)[nH]1 (stereo unspecified) | > 100 µM | – |
| CCCCCc1nc2c(c3c1CCCC3)CCCC2 | 49.7 µM | 12.6 µM |
| COc1cc2c(c(O)c1OC)C(O)C1CCC(=O)N1C2c1cccc2ccccc12 (stereo unspecified) | > 100 µM | – |

| SMILES | TGI | GI50 |
| --- | --- | --- |
| CCN1/C(=C/C=C/c2n(-c3ccccc3)c3ccc(-c4nc5ccccc5s4)cc3[n+]2CC)N(c2ccccc2)c2ccc(-c3nc4ccccc4s3)cc21 | > 50 µM | 1.4 µM |
| N/C(=C\C(=O)n1nc(-c2ccccc2)cc1N)c1ccccc1 | 28.5 µM | 5.26 µM |
| Cc1nc(-c2ccccc2)c(Cc2ccccc2O)c(=O)[nH]1 | > 100 µM | – |
| n1onc2c1NC1Nc3nonc3NC1N2 (stereo unspecified) | > 100 µM | – |
| CCCOC(=O)C1CCC(=O)N1C(=O)C(C)Cl (stereo unspecified) | > 100 µM | – |
| CCOc1ccc(NC(=O)C2=C(C)NC(C)=C(C(=O)Nc3ccc(OCC)cc3)C2c2ccc(O)c(OC)c2)cc1 | > 100 µM | – |
| CCOC(O)(NC(=O)C(C(F)(F)F)C(F)(F)F)C(F)(F)F (stereo unspecified) | > 100 µM | – |
| S=c1nc(Cc2ccc(Cl)cc2)[nH][nH]1 | > 100 µM | – |
| CCCCCCCc1cc(OC(=O)c2c(C)cc(OC)cc2O)cc(O)c1C(=O)O | 38.8 µM | – |
| COc1cc(OC)cc(OCc2ccc3nc(-c4ccccc4)c(Cl)nc3c2)c1 | > 100 µM | – |
| O=S(=O)(Cc1ccc(Cl)cc1Cl)c1ccc(Cl)cc1 | > 42.5 µM | 1.83 µM |
| COCO[C@@H]1C[C@H]2C(=O)N(COC)c3ccccc3C(=O)N2C1 | > 100 µM | – |
| CCN(CC)c1ccc(/C=C2/C[N+](C)(C)C/C(=C/c3ccc(N(CC)CC)cc3)C2=O)cc1 | 48.9 µM | – |
| Cc1ncc([N+](=O)[O-])n1CCN(C)C(=O)CCCn1ccnc1[N+](=O)[O-] | > 100 µM | – |
| Nc1ccc2nc(NCc3ccc(F)cc3)cnc2c1 | > 100 µM | – |
| Cc1noc2cccc(OCc3ccccc3)c12 | > 100 µM | – |
| Fc1ccc(-c2nn3c(-c4ccc(F)c(Cl)c4)nnc3s2)cc1 | > 50 µM | 44.4 µM |
| Nc1ncnc2c1ncn2Cc1ccc(C23CC4CC(CC(C4)C2)C3)c(OCc2cc(F)c(F)cc2F)c1 | > 100 µM | 9.23 µM |
| O=C1[C@@H]2C(c3ccc(Cl)cc3Cl)=NO[C@@H]2C(=O)N1c1ccc(Cc2ccc(N3C(=O)[C@H]4C(c5ccc(Cl)cc5Cl)=NO[C@H]4C3=O)cc2)cc1 | > 100 µM | – |
| N#C/C(=N\Nc1ccc(Cl)cc1)C(=O)Nc1cc(-c2ccccc2)nn1-c1ccccc1 | > 100 µM | 3 µM |
| COc1cc2c(cc1OCCCCCOc1cc3c(cc1OC)C(=O)N1CC(F)C[C@H]1C=N3)N=C[C@@H]1CC(F)CN1C2=O (stereo partly specified) | 1.45 µM | 0.0702 µM |
| CC(=O)N1CN2C(=O)CCC2c2ccccc21 (stereo unspecified) | > 100 µM | – |
| Cn1c(-c2cccs2)cc(-c2ccccc2)c1-c1cccs1 | > 100 µM | – |
| O=C(Nc1ccccc1)c1nn(-c2cc(S(=O)(=O)O)c([N+](=O)[O-])cc2Cl)[n+](-c2cc(S(=O)(=O)[O-])c([N+](=O)[O-])cc2Cl)n1 | > 100 µM | – |
| CCCCCCCCCCCCCCCc1ccc(OCC(O)CO)cc1 (stereo unspecified) | > 100 µM | – |

| SMILES | TGI | GI50 |
| --- | --- | --- |
| COc1ccc(N(CN2C(=O)CCC2C(=O)O)C(C)=O)cc1 (stereo unspecified) | > 100 µM | – |
| C#CCn1ncc2c(SC)ncnc21 | > 100 µM | – |
| CN(C)c1ccc(/C=C(\NC(=O)c2ccccc2)C(=O)NCC(=O)O)cc1 | > 100 µM | – |
| COc1cc2cc(C(=O)CCC(=O)O)sc2cc1OC | > 100 µM | > 100 µM |
| Cc1c(C#N)c2ccccc2c2nc3ccccc3n12 | > 100 µM | – |
| COC(c1cccc(C(O)(C(F)(F)F)C(F)(F)F)c1)(C(F)(F)F)C(F)(F)F | 34.9 µM | – |
| Nc1nc2sc3ccccc3c(=O)n2n1 | > 100 µM | – |
| Cc1n[nH]c(=O)n1C1CCCC1 | > 100 µM | – |
| CCC[CH2][Sn]([CH2]CCC)([O]C(=O)c1cc(F)ccc1F)[O][Sn]([CH2]CCC)([CH2]CCC)[O]C(=O)c1cc(F)ccc1F | 2.63 µM | 1.34 µM |
| Cc1cc(NCCCNc2ccnc3cc(Cl)ccc23)nc(N2CCN(C)CC2)n1 | 50.1 µM | 5.48 µM |
| Cn1c(N)c(C(N)=O)[nH]c1=S | > 100 µM | – |
| Cn1cc(C2=C(c3cn(CCO)c4ccccc34)C(=O)NC2=O)c2ccccc21 | > 19.3 µM | 5.73 µM |
| NC(=O)c1cccc(C2OC(COP(=O)(O)O)C(O)C2O)c1 (stereo unspecified) | > 50 µM | – |
| COc1ccc(/C=C/c2sc3ccccc3[n+]2CCCCI)cc1OC | > 10 µM | – |
| O=C(C[C@H](NC(=O)OCc1ccccc1)C(=O)NC1Cc2ccccc2OC1=O)OCc1ccccc1 (stereo partly specified) | > 100 µM | – |
| CC(=O)N1c2ccccc2C2=CC3C4C(=O)N(c5ccccc5)C(=O)C4C21C1C(=O)N(c2ccccc2)C(=O)C31 (stereo unspecified) | > 100 µM | – |
| O=C(O)c1cc(=O)[nH]c(SCc2ccccc2)n1 | > 100 µM | – |
| O=C1CS(=O)(=O)C(c2cccc(Oc3ccccc3)c2)N1c1cccc(Cl)c1 (stereo unspecified) | > 100 µM | – |
| COC(=O)[C@H](Cc1ccccc1)NC(=O)N1CCCN(C(=O)N[C@@H](Cc2ccccc2)C(=O)OC)CCCN(C(=O)N[C@@H](Cc2ccccc2)C(=O)OC)CCC1 | 29.2 µM | – |
| CCC1C(=O)OCc2c1cc1n(c2=O)Cc2cc3ccccc3nc2-1 (stereo unspecified) | > 100 µM | – |
| O=c1[nH]c2ccc(Cl)cc2c2oc(-c3ccccc3)nc12 | 50.7 µM | – |
| C=[N+](CNC(=O)CNC(=O)C(Cc1ccc([N+](=O)[O-])cc1)NC(=O)OC(C)(C)C)C(=O)CNC(=O)C(Cc1ccc([N+](=O)[O-])cc1)NC(=O)OC(C)(C)C (stereo unspecified) | > 100 µM | – |
| CC(=O)c1c(SCCN2CCCC2)n(-c2ccccc2)c(=S)n(-c2ccccc2)c1=O | 55.7 µM | – |
| N=C(N)c1ccc(OCCOCCOc2ccc(C(=N)N)cc2)cc1 | > 100 µM | 79.5 µM |
